The record followed here is ChEMBL document CHEMBL1961873, “Compounds: GSK PKIS; Assays: Nanosyn kinase panel” (2012).

Assay [1] addresses T1, 3-phosphoinositide-dependent protein kinase 1 (Homo sapiens) (UniProt O15530).
T1 sequence (whole entry): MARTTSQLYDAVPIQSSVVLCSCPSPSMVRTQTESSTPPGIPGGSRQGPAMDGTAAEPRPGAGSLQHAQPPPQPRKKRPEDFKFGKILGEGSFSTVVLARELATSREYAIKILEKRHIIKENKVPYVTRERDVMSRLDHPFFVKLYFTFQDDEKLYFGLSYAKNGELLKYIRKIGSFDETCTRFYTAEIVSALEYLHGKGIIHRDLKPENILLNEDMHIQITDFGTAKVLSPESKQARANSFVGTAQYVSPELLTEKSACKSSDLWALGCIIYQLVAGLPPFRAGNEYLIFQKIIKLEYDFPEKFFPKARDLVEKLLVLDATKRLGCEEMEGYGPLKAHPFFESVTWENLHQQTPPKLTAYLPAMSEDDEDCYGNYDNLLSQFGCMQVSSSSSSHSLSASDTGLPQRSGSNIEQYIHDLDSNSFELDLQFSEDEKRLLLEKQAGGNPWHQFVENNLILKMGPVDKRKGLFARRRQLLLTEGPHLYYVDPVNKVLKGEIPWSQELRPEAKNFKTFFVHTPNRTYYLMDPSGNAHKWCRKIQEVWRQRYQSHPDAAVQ
As to conditions: at 0.1 µM.

Assay [2] concerns the target cAMP-dependent protein kinase catalytic subunit alpha (Homo sapiens) (UniProt P17612). To be noted: at 0.1 µM.
The target is the same in assay [3]. To be noted: at 1 µM.
Assay [4] has as its target Protein kinase C alpha type (Homo sapiens) (UniProt P17252). As to conditions: at 0.1 µM.
For assay [5] the target is unchanged. To be noted: at 1 µM.
The target in assay [6] is Protein kinase C beta type (Homo sapiens) (UniProt P05771). To be noted: at 0.1 µM.
For assay [7] the target is unchanged. To be noted: at 1 µM.
Assay [8] deals with Protein kinase C eta type (Homo sapiens) (UniProt P24723). As to conditions: at 0.1 µM.
Assay [9] shares this target. As to conditions: at 1 µM.
The target in assay [10] is Protein kinase C gamma type (Homo sapiens) (UniProt P05129). To be noted: at 0.1 µM.
For assay [11] the target is unchanged. As to conditions: at 1 µM.
Assay [12] concerns the target T2, Protein kinase C iota type (Homo sapiens) (UniProt P41743).
T2 sequence (whole entry): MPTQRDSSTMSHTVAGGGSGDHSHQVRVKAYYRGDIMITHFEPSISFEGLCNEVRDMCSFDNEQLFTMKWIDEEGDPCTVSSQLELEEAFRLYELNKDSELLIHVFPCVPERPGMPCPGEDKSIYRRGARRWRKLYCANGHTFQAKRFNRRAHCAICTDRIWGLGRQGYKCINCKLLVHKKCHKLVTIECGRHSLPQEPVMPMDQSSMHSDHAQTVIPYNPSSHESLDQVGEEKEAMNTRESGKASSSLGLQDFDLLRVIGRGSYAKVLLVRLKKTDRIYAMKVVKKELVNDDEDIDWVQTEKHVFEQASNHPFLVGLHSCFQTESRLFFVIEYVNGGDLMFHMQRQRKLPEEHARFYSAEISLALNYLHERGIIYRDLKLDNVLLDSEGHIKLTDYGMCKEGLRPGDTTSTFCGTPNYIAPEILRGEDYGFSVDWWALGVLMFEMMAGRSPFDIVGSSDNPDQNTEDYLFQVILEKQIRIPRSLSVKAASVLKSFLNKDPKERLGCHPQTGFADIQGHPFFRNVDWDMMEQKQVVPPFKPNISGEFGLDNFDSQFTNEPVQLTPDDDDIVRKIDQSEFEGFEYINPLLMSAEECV
To be noted: at 0.1 µM.

In assay [13] the target is T2, Protein kinase C iota type (Homo sapiens). To be noted: at 1 µM.
Assay [14] has as its target Protein kinase C theta type (Homo sapiens) (UniProt Q04759). To be noted: at 0.1 µM.
In assay [15] the target is Protein kinase C beta type (Homo sapiens) (UniProt P05771). As to conditions: at 0.1 µM. The source holds these as a separate data set.
For assay [16] the target is unchanged. As to conditions: at 1 µM. The source holds these as a separate data set.
For assay [17], the target named is T3, Serine/threonine-protein kinase D1 (Homo sapiens) (UniProt Q15139).
T3 sequence (whole entry): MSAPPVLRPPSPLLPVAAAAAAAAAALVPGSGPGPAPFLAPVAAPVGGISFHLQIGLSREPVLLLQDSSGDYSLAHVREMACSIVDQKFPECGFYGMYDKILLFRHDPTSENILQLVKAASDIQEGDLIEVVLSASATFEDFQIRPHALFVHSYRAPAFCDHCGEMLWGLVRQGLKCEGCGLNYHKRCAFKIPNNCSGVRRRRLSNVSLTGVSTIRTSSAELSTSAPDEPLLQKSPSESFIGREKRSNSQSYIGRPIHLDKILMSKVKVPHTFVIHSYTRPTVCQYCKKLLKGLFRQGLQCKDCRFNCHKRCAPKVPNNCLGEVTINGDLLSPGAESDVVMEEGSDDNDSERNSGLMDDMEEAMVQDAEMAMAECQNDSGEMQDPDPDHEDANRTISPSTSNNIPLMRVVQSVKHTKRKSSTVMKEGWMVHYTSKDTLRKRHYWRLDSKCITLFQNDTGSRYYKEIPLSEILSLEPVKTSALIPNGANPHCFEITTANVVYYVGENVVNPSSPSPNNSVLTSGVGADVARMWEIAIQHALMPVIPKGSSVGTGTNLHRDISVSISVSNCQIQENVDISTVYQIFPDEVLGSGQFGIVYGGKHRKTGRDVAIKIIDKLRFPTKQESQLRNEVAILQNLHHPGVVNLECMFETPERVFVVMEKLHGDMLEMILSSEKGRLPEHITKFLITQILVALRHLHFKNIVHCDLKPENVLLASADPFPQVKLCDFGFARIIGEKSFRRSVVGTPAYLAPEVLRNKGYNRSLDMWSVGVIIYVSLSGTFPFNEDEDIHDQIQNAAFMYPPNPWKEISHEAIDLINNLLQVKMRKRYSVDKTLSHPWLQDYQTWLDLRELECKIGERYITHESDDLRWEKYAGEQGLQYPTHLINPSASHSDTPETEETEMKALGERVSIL
To be noted: at 0.1 µM.

The target in assay [18] is T3, Serine/threonine-protein kinase D1 (Homo sapiens). As to conditions: at 1 µM.
Assay [19] addresses T4, Serine/threonine-protein kinase D2 (Homo sapiens) (UniProt Q9BZL6).
T4 sequence (whole entry): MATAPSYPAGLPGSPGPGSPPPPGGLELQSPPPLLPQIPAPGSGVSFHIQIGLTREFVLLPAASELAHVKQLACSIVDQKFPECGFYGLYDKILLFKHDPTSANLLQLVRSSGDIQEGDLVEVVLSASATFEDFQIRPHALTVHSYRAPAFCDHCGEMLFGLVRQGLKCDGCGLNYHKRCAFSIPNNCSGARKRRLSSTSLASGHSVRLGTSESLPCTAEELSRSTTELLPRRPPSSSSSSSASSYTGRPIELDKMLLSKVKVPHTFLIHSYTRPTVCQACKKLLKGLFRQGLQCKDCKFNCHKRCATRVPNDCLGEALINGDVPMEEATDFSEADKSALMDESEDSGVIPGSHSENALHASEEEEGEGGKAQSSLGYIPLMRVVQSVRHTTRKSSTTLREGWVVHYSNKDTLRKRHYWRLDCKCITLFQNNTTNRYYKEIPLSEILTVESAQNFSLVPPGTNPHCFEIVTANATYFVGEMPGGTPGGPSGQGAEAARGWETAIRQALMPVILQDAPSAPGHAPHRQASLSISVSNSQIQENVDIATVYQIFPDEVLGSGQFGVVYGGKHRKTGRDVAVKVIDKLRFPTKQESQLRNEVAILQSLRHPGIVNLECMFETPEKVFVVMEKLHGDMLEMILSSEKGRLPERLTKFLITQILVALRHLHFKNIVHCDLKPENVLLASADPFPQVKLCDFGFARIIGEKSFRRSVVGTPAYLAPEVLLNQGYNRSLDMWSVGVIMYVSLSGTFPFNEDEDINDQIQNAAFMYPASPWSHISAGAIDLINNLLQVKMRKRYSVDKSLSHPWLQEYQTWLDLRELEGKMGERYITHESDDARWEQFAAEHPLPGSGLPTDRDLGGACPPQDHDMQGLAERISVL
As to conditions: at 0.1 µM.

The target in assay [20] is Protein kinase C theta type (Homo sapiens) (UniProt Q04759). As to conditions: at 1 µM.

For some of these results: Shown are results outside the selection of strong results, which stands elsewhere. This is a selection; strong and weak results do not stand in their true shares.

As for `COc1ccccc1Oc1nccc(-c2c(-c3ccc(F)cc3)ncn2C2CCNCC2)n1`, the inhibition (in general, the drop in the measured response relative to a control, in per cent) in assay [1] worked out at 0.65%; in assay [2] it was 2.95%; in [3], 6.69%; in [4], 1.33%; in assay [5], 1.42%; in [6] it was 1.79%. Besides, the inhibition in assay [7] is 3.03%; in [8], 2.13%; in assay [9], 6.84%; in assay [10] it was 1.62%; in assay [11], 0.32%; in assay [12], 3.32%. In addition, the inhibition in assay [13] is 3.07%; in [14], 3.73%; in [15], 1.35%; in [16], 3.22%; in assay [17], 6.05%; in assay [18] it was 13.8%. The inhibition in assay [19] was determined as 6.22%.

For the molecule `NC(=O)CCc1ccccc1Oc1nccc(-c2c(-c3ccc(F)cc3)ncn2C2CCNCC2)n1`, the inhibition was -1.17% in [1]; 0.78% in [2]; 5.64% in assay [3]; -0.77% in assay [4]; -0.05% in [5]; -1.55% in assay [6]. Moreover, the inhibition in [7] is 1.67%; in assay [8] it was -0.99%; in [9], -0.13%; in assay [10], 0.02%; in assay [11], 1.89%; in assay [12] it was -0.01%. Also, the inhibition was 0.33% in [13]; -0.31% in assay [14]; -0.78% in assay [20]; 0.09% in [15]; 3.24% in assay [16]; -1.84% in [17]. In addition, the inhibition in assay [18] is -1.13%; in assay [19] it was -1.3%.

As to `O=C1NC(=O)C(c2ccccc2)=C1Nc1ccccc1`, the inhibition in [1] amounted to 1.52%; in assay [2], 2.01%; in assay [3], 3.06%; in assay [4] it was 1.42%; in assay [5], 8.34%; in assay [6], 2%. In addition, the inhibition in assay [7] stood at 6.45%; in assay [8] it was 4.22%; in [9] it was 8.36%; in assay [10], 2.11%; in [11] it was 12.2%; in assay [12] it was 2.73%. For the same molecule, the inhibition in assay [13] came out at 2.63%; in assay [14], 4.77%; in assay [20], 8.9%; in [15], 4.21%; in [16], 11.6%; in assay [17], 4.35%. Moreover, the inhibition worked out at 7.48% in assay [18] and 4.88% in assay [19].

For `CS(=O)(=O)c1ccc(Oc2nccc(-c3c(-c4ccc(F)cc4)ncn3C3CCNCC3)n2)cc1`, the inhibition was 0.38% in assay [1]; 2.2% in assay [2]; 3.67% in [3]; 0.53% in assay [4]; 2.33% in assay [5]; 2.26% in [6]. Also, the inhibition turned out to be 2.31% in assay [7]; 5.38% in [8]; 4.36% in assay [9]; 1.85% in assay [10]; 2.93% in [11]; 2.14% in [12]. The inhibition came to 1.77% in assay [13]; 2.46% in [14]; 3.24% in assay [20]; 0.91% in assay [15]; 3.5% in [16]; 3.79% in [17]. In addition, the results for the inhibition in assay [18] and in assay [19] were 5.15% and 3.72%, respectively.

`Cc1cccc(Oc2nccc(-c3c(-c4ccc(F)cc4)ncn3C3CCNCC3)n2)c1C`: the inhibition in assay [1] is -0.35%; in [2], 4.13%; in [3], 17.5%; in [4], 0.78%; in [5], 1.91%; in assay [6], -0.74%. Moreover, the inhibition is 6.3% in [7]; 2.76% in assay [8]; 3.94% in [9]; 2.45% in assay [10]; 3.63% in assay [11]; 3.05% in [12]. Besides, the inhibition in [13] stood at 2.72%; in [14] it was 2.35%; in [20] it was 3.35%; in assay [15], 1.25%; in assay [16] it was 5.33%; in [17], 6%. Besides, the inhibition in assay [18] was 18.2%; in [19], 5.84%.

As to `O=C1NC(=O)C(c2ccccc2Cl)=C1Nc1cc(Cl)c(O)c(Cl)c1`, the inhibition turned out to be 0.58% in [1]; 1.04% in assay [2]; 2.86% in assay [3]; 0.29% in assay [4]; 3.25% in assay [5]; 0.56% in [6]. The inhibition in assay [7] was 2.96%; in [8], 2.28%; in [9], 5.57%; in [10], 10.1%; in assay [11], 5.5%; in [12], 2.8%. Besides, the inhibition in [13] was 0.09%; in assay [14], 2.67%; in assay [20], 4.4%; in assay [15], 3.48%; in [16], 3.15%; in assay [17], 2.88%. Moreover, the inhibition was 4.09% in [18] and 2.37% in [19].

For `O=C1NC(=O)C(c2cccc([N+](=O)[O-])c2)=C1Nc1cc(Cl)c(O)c(Cl)c1`, the inhibition was 1.36% in [1]; 3.2% in assay [2]; 4.75% in assay [3]; 0% in assay [4]; 1.77% in assay [5]; -0.53% in [6]. The inhibition is 1.87% in assay [7]; 1.43% in assay [8]; 1.81% in assay [9]; -1.64% in assay [10]; 1.14% in [11]; -0.11% in [12]. The inhibition was -1.31% in assay [13]; 0.09% in assay [14]; 0.93% in [20]; 0.87% in assay [15]; 3.52% in assay [16]; 1.2% in assay [17]. Also, the results for the inhibition in assay [18] and in assay [19] were 1.22% and 3.15%, respectively.
